No constants are given. Whether binding was seen depends on the method and setting. For part of these data: In cells and extracts the contact can be indirect. Some entries that bind do so weakly or less than the wild type. For part of these data: Tags and fused reporters may be left off the sequences shown.
What was measured:
[1] = biological target: Not1-GFP (full-length Not1, C-terminally GFP-tagged) (S. cerevisiae) (UniProt P25655); experiment: co-IP; GFP-Trap magnetic agarose beads capture the C-terminally GFP-tagged bait from yeast cell lysate (2 hr at 4°C; 50 mM Tris-HCl pH 7.5, 100 mM NaCl, 1.5 mM MgCl2, 5% glycerol, 0.1% NP-40; nine washes); C-terminally TAP-tagged prey detected by Western blot (anti-protA); strains with nontagged bait as background control
Btt1-GFP (S. cerevisiae) = biological target: T1, Btt1-GFP (S. cerevisiae) (UniProt P40314); experiment: as above
T1 sequence: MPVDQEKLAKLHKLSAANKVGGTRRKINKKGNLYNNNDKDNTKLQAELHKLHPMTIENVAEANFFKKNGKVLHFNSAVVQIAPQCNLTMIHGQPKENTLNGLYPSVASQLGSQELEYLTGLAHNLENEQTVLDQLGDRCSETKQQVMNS

The chains behind the UniProt entries cited, without tags or fusion partners. Where a name states a change or a piece, a line headed by the entry shows the natural chain unless it says otherwise. A line that says so, or that is headed by a name, gives the form on record, which may keep a tag or linker. Residues count along the entry.
UniProt P25655: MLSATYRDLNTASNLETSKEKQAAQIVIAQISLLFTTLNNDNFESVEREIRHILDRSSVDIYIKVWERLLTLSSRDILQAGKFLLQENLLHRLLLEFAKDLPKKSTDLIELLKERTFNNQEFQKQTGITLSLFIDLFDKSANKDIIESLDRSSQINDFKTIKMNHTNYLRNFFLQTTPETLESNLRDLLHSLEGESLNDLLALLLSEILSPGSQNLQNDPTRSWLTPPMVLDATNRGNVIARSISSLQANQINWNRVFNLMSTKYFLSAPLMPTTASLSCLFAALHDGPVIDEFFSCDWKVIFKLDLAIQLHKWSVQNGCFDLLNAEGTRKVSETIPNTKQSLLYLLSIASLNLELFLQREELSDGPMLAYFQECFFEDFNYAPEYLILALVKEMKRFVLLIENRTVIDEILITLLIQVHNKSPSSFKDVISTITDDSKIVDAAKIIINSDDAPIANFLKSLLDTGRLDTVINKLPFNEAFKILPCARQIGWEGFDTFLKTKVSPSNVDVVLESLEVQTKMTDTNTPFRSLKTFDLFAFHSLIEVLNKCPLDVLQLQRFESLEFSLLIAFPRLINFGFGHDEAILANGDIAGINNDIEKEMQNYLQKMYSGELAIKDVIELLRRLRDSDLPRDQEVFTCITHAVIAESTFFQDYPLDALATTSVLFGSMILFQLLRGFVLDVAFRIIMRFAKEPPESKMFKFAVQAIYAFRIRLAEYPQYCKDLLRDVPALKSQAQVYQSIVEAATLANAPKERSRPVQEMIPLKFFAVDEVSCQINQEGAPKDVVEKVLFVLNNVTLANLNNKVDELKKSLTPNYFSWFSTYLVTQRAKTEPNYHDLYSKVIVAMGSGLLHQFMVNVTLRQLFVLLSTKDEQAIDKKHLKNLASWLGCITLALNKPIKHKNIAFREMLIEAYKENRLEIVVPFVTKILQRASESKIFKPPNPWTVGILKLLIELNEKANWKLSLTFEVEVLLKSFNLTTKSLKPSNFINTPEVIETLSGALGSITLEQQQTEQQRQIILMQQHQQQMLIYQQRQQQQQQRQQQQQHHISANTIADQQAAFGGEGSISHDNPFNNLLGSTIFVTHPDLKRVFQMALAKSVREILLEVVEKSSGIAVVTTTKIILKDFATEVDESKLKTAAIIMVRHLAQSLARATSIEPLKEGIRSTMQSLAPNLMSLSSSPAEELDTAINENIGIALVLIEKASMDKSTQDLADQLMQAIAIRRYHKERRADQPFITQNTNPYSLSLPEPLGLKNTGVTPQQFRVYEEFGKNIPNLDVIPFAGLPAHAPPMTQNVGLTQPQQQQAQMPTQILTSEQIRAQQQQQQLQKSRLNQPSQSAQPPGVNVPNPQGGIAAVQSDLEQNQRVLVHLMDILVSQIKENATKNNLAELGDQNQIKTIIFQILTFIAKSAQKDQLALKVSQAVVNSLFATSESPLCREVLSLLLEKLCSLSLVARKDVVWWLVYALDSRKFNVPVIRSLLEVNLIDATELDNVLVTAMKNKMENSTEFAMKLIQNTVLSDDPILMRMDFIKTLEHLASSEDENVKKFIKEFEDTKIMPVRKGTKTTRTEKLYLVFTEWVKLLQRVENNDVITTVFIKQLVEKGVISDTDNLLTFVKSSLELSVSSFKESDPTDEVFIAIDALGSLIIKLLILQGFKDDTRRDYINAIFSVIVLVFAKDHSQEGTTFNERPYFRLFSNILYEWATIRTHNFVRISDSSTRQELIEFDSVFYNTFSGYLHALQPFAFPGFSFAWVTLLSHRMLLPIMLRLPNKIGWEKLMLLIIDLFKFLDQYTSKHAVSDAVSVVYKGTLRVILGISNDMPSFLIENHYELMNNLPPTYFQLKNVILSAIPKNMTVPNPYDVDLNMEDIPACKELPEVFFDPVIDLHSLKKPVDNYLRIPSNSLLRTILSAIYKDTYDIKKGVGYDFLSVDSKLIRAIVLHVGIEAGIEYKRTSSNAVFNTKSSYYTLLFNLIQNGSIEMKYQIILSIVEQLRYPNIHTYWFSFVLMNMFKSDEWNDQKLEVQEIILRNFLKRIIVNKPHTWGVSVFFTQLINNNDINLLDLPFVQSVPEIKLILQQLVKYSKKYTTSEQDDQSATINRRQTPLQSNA
Not1.154C-GFP (Not1 lacking the first 153 amino acids, C-terminally GFP-tagged): residues 154-2108 of P25655

Cal4-GFP (S. cerevisiae) = biological target: T2, Cal4-GFP (S. cerevisiae) (UniProt P47086); experiment: as above
T2 sequence: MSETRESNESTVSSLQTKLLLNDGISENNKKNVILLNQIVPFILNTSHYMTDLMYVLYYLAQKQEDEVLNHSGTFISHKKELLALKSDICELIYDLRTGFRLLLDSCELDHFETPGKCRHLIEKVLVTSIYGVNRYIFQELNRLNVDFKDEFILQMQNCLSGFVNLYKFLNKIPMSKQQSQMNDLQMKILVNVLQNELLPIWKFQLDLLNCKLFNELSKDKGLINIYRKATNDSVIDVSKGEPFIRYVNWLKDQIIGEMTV

[2] = biological target: Not1.154C-GFP (Not1 lacking the first 153 amino acids, C-terminally GFP-tagged) (S. cerevisiae) (UniProt P25655); experiment: as above
Egd2-GFP (S. cerevisiae) = biological target: T3, Egd2-GFP (S. cerevisiae) (UniProt P38879); experiment: as above
T3 sequence: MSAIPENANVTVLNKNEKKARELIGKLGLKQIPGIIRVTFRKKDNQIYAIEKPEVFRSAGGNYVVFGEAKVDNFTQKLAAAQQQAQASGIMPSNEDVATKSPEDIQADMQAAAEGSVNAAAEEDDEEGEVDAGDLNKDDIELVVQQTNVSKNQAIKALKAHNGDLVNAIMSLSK

[3] = biological target: full-length Not1, yeast two-hybrid fusion (S. cerevisiae) (UniProt P25655); experiment: two-hybrid; reporter strain PJ69-4A; bait fused to Gal4 DNA-binding domain, prey fused to Gal4 activation domain; growth on SC-Leu-Trp-His (HIS3) and SC-Leu-Trp-Ade (ADE2) plates, 3 days at 30°C
[4] = biological target: T4, full-length Btt1, yeast two-hybrid fusion (S. cerevisiae) (UniProt P40314); experiment: as above
T4 sequence: T1 sequence

[5] = biological target: T5, full-length Cal4, yeast two-hybrid fusion (S. cerevisiae) (UniProt P47086); experiment: as above
T5 sequence: T2 sequence

[6] = biological target: T6, full-length Egd2, yeast two-hybrid fusion (S. cerevisiae) (UniProt P38879); experiment: as above
T6 sequence: T3 sequence

B1: Caf130-TAP (protein, UniProt P53280 1-1122)
chain: MTKKKAATNYAERQNLASEDSSGDSVHFKDFIPLQELLKDKNYVPSVENLEKILYNETMFNDQKICSNLLLEALIITLFTTISGKSALRLIQTSSLKERKSWAQSFENNSSSYASIVLSWKDNDILLLKFLRFLLANKTAPLQINRYNLPEYKLPLSFLIVSKITIPSILLNETYNLLKDYLYSITGRIESLISCSSTFDKPALVVRKILKDYNRMIECRNFYFWYSFNAENRVNLTFSDNISLLMENDEGNAGSGLDDSRFDHQKQPREAIMGRTINDQEQIYSFELNQDGTLEIPNVMEHSLLRHELLFKILNLTTVLTPLLELQFSTLCGLVDPLMQPTPNDKHIISIDFLFQLFLGLMSQSIKTSQEHNDHYDWKFYMCFNMQKIIDATMLRLNCFDFDILNSVNNTDNAVHWKTQLHRWLPHGLNTQDLELLYMIDILAVYTIYKLYEKIPIQLNPFLFSLISLWKNLSCVILLALEIDRIEEENGTYETPLMVRATIRGAAALRSVIATVLNGLVKNNDHDFKHESLNTFMSPYGRKLCHGALYADLRSHTASLLALGASIEDVTDLFADLQSGDRFDEDIRYMFDYECEDYDESFSESDHGGLDESVVNPTEKIASGSNNVFFRRRCNCIFNDDKLVAEDGANEAFGSTNSENVEGAMHNNRNAVHNATTATSDHVVTSPNPLSVRSRSTFEFDYSGEDWRDVPRDFNMYYSPSYSFIHEPKLDVIFSLTLRGATEKLNKEESILLVRSVASCVRNEQDQMILADLESNFSASINGDVEGEGNTKMSKIDNEDLRRTTPDDIYEIWSEESAFERMLNVNHDVAWRLMDEMLMCTGYRRILIWFLTHLELKHSLIYYVFELIMGLRGKPFSGEASDQDKKDDMIYEILKKKQKNEDASGLPFSRQGPIVLSDIETKMLLQEFFMNAAIFLSSKNNEEENEDGEKISLYSLGLVRLICYMVQTLIANDKFFFTKSECTFELQTLLMTWIGILPEAKDLFFKIKTRLAMEEEDSADTMQHEGRKNSDIEKKLNAKPASELNLKLLNLFPSKPANKDDSSPINTLRSFIADYSFDTQVNPPGRRVVFYDGKILPLPKADKPIPLHEYITLAELDVGDSE
[1]
  binding: binds
Btt1-GFP (S. cerevisiae)
  binding: binds
Cal4-GFP (S. cerevisiae)
  binding: binds
[2]
  binding: no binding

B2: Egd1-TAP (protein, UniProt Q02642 1-157)
chain: MPIDQEKLAKLQKLSANNKVGGTRRKLNKKAGSSAGANKDDTKLQSQLAKLHAVTIDNVAEANFFKDDGKVMHFNKVGVQVAAQHNTSVFYGLPQEKNLQDLFPGIISQLGPEAIQALSQLAAQMEKHEAKAPADAEKKDEAIPELVEGQTFDADVE
[1]
  binding: no binding
Btt1-GFP (S. cerevisiae)
  binding: no binding
Cal4-GFP (S. cerevisiae)
  binding: no binding
Egd2-GFP (S. cerevisiae)
  binding: binds

B3: Caf130 (amino acids 40–655), yeast two-hybrid fusion (domain or fragment, UniProt P53280 40-655)
chain: DKNYVPSVENLEKILYNETMFNDQKICSNLLLEALIITLFTTISGKSALRLIQTSSLKERKSWAQSFENNSSSYASIVLSWKDNDILLLKFLRFLLANKTAPLQINRYNLPEYKLPLSFLIVSKITIPSILLNETYNLLKDYLYSITGRIESLISCSSTFDKPALVVRKILKDYNRMIECRNFYFWYSFNAENRVNLTFSDNISLLMENDEGNAGSGLDDSRFDHQKQPREAIMGRTINDQEQIYSFELNQDGTLEIPNVMEHSLLRHELLFKILNLTTVLTPLLELQFSTLCGLVDPLMQPTPNDKHIISIDFLFQLFLGLMSQSIKTSQEHNDHYDWKFYMCFNMQKIIDATMLRLNCFDFDILNSVNNTDNAVHWKTQLHRWLPHGLNTQDLELLYMIDILAVYTIYKLYEKIPIQLNPFLFSLISLWKNLSCVILLALEIDRIEEENGTYETPLMVRATIRGAAALRSVIATVLNGLVKNNDHDFKHESLNTFMSPYGRKLCHGALYADLRSHTASLLALGASIEDVTDLFADLQSGDRFDEDIRYMFDYECEDYDESFSESDHGGLDESVVNPTEKIASGSNNVFFRRRCNCIFNDDKLVAEDGANEAFGS
[3]
  binding: binds

B4: Caf130 (amino acids 292–655), yeast two-hybrid fusion (domain or fragment, UniProt P53280 292-655)
chain: GTLEIPNVMEHSLLRHELLFKILNLTTVLTPLLELQFSTLCGLVDPLMQPTPNDKHIISIDFLFQLFLGLMSQSIKTSQEHNDHYDWKFYMCFNMQKIIDATMLRLNCFDFDILNSVNNTDNAVHWKTQLHRWLPHGLNTQDLELLYMIDILAVYTIYKLYEKIPIQLNPFLFSLISLWKNLSCVILLALEIDRIEEENGTYETPLMVRATIRGAAALRSVIATVLNGLVKNNDHDFKHESLNTFMSPYGRKLCHGALYADLRSHTASLLALGASIEDVTDLFADLQSGDRFDEDIRYMFDYECEDYDESFSESDHGGLDESVVNPTEKIASGSNNVFFRRRCNCIFNDDKLVAEDGANEAFGS
[4]
  binding: binds

B5: Caf130 (amino acids 686–938), yeast two-hybrid fusion (domain or fragment, UniProt P53280 686-938)
chain: SPNPLSVRSRSTFEFDYSGEDWRDVPRDFNMYYSPSYSFIHEPKLDVIFSLTLRGATEKLNKEESILLVRSVASCVRNEQDQMILADLESNFSASINGDVEGEGNTKMSKIDNEDLRRTTPDDIYEIWSEESAFERMLNVNHDVAWRLMDEMLMCTGYRRILIWFLTHLELKHSLIYYVFELIMGLRGKPFSGEASDQDKKDDMIYEILKKKQKNEDASGLPFSRQGPIVLSDIETKMLLQEFFMNAAIFLSS
[5]
  binding: binds

## MTIENVAEANFFKKNGKVLHFNSAVVQIAPQCNLTMIHGQPKENTLNG (domain or fragment, UniProt P40314 54-101) [Btt1 (amino acids 54–101), yeast two-hybrid fusion]
[6]
  binding: binds

B6: Not2-TAP (protein, UniProt P06100 1-191)
chain: MEKFGLKALVPLLKLEDKELSSTYDHSMTLGADLSSMLYSLGIPRDSQDHRVLDTFQSPWAETSRSEVEPRFFTPESFTNIPGVLQSTVTPPCFNSIQNDQQRVALFQDETLFFLFYKHPGTVIQELTYLELRKRNWRYHKTLKAWLTKDPMMEPIVSADGLSERGSYVFFDPQRWEKCQRDFLLFYNAIM
[2]
  binding: binds

B7: Not5-TAP (protein, UniProt Q12514 1-560)
chain: MSQRKLQQDIDKLLKKVKEGIEDFDDIYEKFQSTDPSNSSHREKLESDLKREIKKLQKHRDQIKTWLSKEDVKDKQSVLMTNRRLIENGMERFKSVEKLMKTKQFSKEALTNPDIIKDPKELKKRDQVLFIHDCLDELQKQLEQYEAQENEEQTERHEFHIANLENILKKLQNNEMDPEPVEEFQDDIKYYVENNDDPDFIEYDTIYEDMGCEIQPSSSNNEAPKEGNNQTSLSSIRSSKKQERSPKKKAPQRDVSISDRATTPIAPGVESASQSISSTPTPVSTDTPLHTVKDDSIKFDNSTLGTPTTHVSMKKKESENDSEQQLNFPPDRTDEIRKTIQHDVETNAAFQNPLFNDELKYWLDSKRYLMQPLQEMSPKMVSQLESSLLNCPDSLDADSPCLYTKPLSLPHPTSIFFPNEPIRFVYPYDVPLNLTNNENDTDNKFGKDSKAKSKKDDDIYSRTSLARIFMKFDLDTLFFIFYHYQGSYEQFLAARELFKNRNWLFNKVDRCWYYKEIEKLPPGMGKSEEESWRYFDYKKSWLARRCGNDFVYNEEDFEKL
[2]
  binding: binds

B8: full-length Btt1, yeast two-hybrid fusion (protein, UniProt P40314 1-149)
chain: T1 sequence
[5]
  binding: no binding

— publication PMC8970588
